Assay results as given in PubChem BioAssay AID1460 (National Center for Advancing Translational Sciences (NCATS), 2008).
Values joined by “and” are separate entries in the source; they are usually repeats but may differ in a detail not shown here. Identical values can stand only once. Among all 270,000 compounds or so, about 5,800 (2.1%) were called active. Inconclusive results, whose numbers are uncertain, are shown with a selection of clear calls. Calls follow the shape of the dose curve; as a rule, active = well fitted inhibition curve with a large enough effect; inconclusive = small, poorly fitted or top-dose-only effect; inactive = flat fitted curve, though single readings scatter. A potency beside an inconclusive call is a rough fit, not a confirmed value.
Also: nearly all actives have a fitted effect of over 55% in size.
Potency is read from the fitted curve at half-maximal effect; tags tell the direction and shape of the fitted curve.

Each molecule was assayed against Microtubule-associated protein tau (Homo sapiens) (UniProt P10636) (assay: qHTS for Inhibitors of Tau Fibril Formation, Thioflavin T Binding). Conditions: recombinant tau K18 P301L (four-repeat tau fragment), heparin-induced fibrillization, ThT fluorescence; series mostly up to 57.4 µM.
UniProt P10636, sequence (P10636 whole entry, looked up, the tested form may be a part): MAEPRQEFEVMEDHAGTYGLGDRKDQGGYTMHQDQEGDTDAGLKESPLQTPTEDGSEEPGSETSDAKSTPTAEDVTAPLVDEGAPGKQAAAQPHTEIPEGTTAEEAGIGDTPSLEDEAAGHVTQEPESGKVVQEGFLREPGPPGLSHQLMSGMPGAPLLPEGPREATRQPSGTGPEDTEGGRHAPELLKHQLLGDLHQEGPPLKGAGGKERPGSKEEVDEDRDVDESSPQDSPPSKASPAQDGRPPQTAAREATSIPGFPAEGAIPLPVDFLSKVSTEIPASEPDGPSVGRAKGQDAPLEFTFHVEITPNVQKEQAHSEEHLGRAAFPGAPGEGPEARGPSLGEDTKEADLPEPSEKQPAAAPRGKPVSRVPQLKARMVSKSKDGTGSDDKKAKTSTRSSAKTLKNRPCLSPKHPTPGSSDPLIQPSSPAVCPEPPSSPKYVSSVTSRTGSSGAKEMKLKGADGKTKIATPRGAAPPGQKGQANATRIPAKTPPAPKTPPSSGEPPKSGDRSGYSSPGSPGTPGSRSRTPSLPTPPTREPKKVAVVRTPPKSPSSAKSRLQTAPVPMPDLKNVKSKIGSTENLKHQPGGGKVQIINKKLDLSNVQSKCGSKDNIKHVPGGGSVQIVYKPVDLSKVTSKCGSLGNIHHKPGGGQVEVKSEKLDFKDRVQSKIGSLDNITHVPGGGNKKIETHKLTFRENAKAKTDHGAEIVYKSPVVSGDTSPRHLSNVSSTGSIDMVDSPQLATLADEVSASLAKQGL
Procedure, shortened: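 K18 P301L tau (15 uM + 0.24 uM Alexa 594-tagged), heparin 20 uM, NaOAc pH 7, 6 h 37 C; ThT 30 uM, 1 h RT, ex 450/em 510 nm.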
In the case of `COc1ccc(C2=CC3=C(Br)C(=O)C(C)(OC(=O)C4CCCC4)C(=O)C3=CO2)cc1` (stereo not drawn), the Potency is reported as inconclusive: 20 µM [inhibitor, partial curve, poor fit] and inconclusive: 22.4 µM [inhibitor, partial curve].
With `CC1=C(C(=O)OCC(Cl)(Cl)Cl)N2C(=O)C(NC(=O)Cc3ccccc3)C2SC1` (stereo not drawn) the Potency was “inactive”.
`CCC(=O)c1ccc(OCc2ccc(C(=O)c3ccccc3)cc2)cc1` was tested, and the Potency was inconclusive: 1.26 µM [inhibitor, full curve].
`Cc1cccc2nc(CSc3nncn3-c3ccccc3)cn12` was tested, and the Potency was inconclusive: 28.2 µM [inhibitor, single point].
With `COc1cc(-c2nc(-c3ccccn3)no2)cc(OC)c1OC` the Potency was inconclusive: 28.2 µM [inhibitor, partial curve, poor fit].
For `COc1ccc2occ(C(=O)c3coc4ccc(O)c(CN(C)C)c34)c2c1`, the Potency was inconclusive: 28.2 µM [inhibitor, single point].
With `Cc1ccccc1C(=O)NNC(=O)/C=C\C(=O)O` the Potency was “inactive”.
With `COc1ccc(C2NC(=S)NC3=C2CCc2ccccc23)cc1OC` (stereo not drawn) the Potency was inconclusive: 31.6 µM [inhibitor, single point].
In the case of `O=C(O)c1cccc(N=NN2CCCCCC2)c1`, the Potency is reported as inconclusive: 39.8 µM [inhibitor, single point].
`O=C(NNC(=O)c1cc(OCC(F)(F)F)ccc1OCC(F)(F)F)c1cccc(C(F)(F)F)c1` was tested, and the Potency was “inactive”.
In the case of `COc1cccc2c1OCC([C@@H]1C[C@H]3CN(Cc4cccc(Cl)c4)C(=O)[C@]34CCCN14)=C2`, the Potency is reported as inconclusive: 8.91 µM [inhibitor, partial curve, poor fit].
`O=C(CSc1ccccc1)Nc1nc2ccccc2[nH]1` was tested, and the Potency was “inactive”.
In the case of `CC(C)CC(=O)NC(=S)Nc1sc2c(c1C(N)=O)CCC2`, the Potency is reported as “inactive”.
`O=C(Nc1cc2c(cc1C(=O)c1cccc(Br)c1)OCCO2)c1ccccc1F` was tested, and the Potency was “inactive”.
`CN(c1ccccc1)S(=O)(=O)c1nnc(NC(=O)COc2ccccc2)s1` was tested, and the Potency was inconclusive: 2 µM [inhibitor, full curve].
For `CCOc1cccc(C(=O)NC(=S)Nc2ccc(N3CCCC3)cc2)c1`, the Potency was inconclusive: 11.2 µM [inhibitor, partial curve].
`COc1ccc(/C=C/C(=O)N2CCN(S(=O)(=O)c3ccccc3)CC2)cc1OC` was tested, and the Potency was “inactive”.
`Cc1cccc(C(=O)NC(=S)NNC(=O)COc2c(C)cccc2C)c1` was tested, and the Potency was inconclusive: 14.1 µM [inhibitor, partial curve].
In the case of `Cc1ccc(C(=O)Oc2ccc(Cl)c3cccnc23)cc1[N+](=O)[O-]`, the Potency is reported as inconclusive: 28.2 µM [inhibitor, partial curve].
With `Cc1cccc(N2CCN(c3ccc(C(=O)O)cc3NC(=O)c3cccc(Cl)c3)CC2C)c1` (stereo not drawn) the Potency was inconclusive: 25.1 µM [inhibitor, single point].
With `O=S(=O)(c1cccc(F)c1)N1CCc2sccc2C1c1ccc(OC(F)(F)F)cc1` (stereo not drawn) the Potency was “inactive”.
With `FC(F)(F)c1ccc(CSc2nccn2-c2ccccc2)cc1` the Potency was “inactive”.
With `C=CCn1c(C)cc(C2=NNC(=NCC)SC2)c1C` the Potency was inconclusive: 39.8 µM [inhibitor, single point].
For `CC(=O)Nc1ccc(Nc2nc(C)c([N+](=O)[O-])c(Nc3ccc(NC(C)=O)cc3)n2)cc1`, the Potency was active: 12.6 µM.
For `O=C(Nc1cc(NC(=O)c2ccccc2)c(C(=O)O)cc1C(=O)O)c1ccccc1`, the Potency was inconclusive: 3.98 µM [activator, full curve, poor fit].
`N#Cc1ccccc1NC(=O)C(=O)NCCc1csc2nc(-c3cccc(F)c3)nn12` was tested, and the Potency was “inactive”.
With `Cc1ccc2nc(Nc3nc(CSc4nnc(C)s4)cc(=O)[nH]3)nc(C)c2c1` the Potency was inconclusive: 8.91 µM [inhibitor, partial curve].
For `CN1CCN(C(=O)c2ccc(C3SCC(=O)N3Cc3ccco3)cc2)CC1` (stereo not drawn), the Potency was “inactive”.
With `COc1cc(CC(=O)OCC(=O)Nc2sccc2C(N)=O)cc(OC)c1OC` the Potency was inconclusive: 44.7 µM [inhibitor, single point].
`COc1ccc(-c2cc(-c3c(O)c(OC)c4occc4c3OC)[nH]n2)cc1` was tested, and the Potency was active: 11.2 µM.
`C/C(CC(=O)Nc1ccc(Cl)c(Cl)c1)=N\NC(N)=S` was tested, and the Potency was “inactive”.
`Cc1cccc(C(=O)c2c(N)sc3c2CCC(C)C3)c1` (stereo not drawn) was tested, and the Potency was inconclusive: 17.8 µM [inhibitor, partial curve].
`Cc1ccc(O)c(NC(=O)c2noc3c2CCCC3)c1` was tested, and the Potency was inconclusive: 11.2 µM [inhibitor, partial curve].
For `CCOc1ccc(N2CCc3c(C)nc(SC)nc32)cc1`, the Potency was inconclusive: 10 µM [inhibitor, partial curve].
For `CCOC(=O)c1cc(-c2csc(Nc3ccccc3Cl)n2)on1`, the Potency was inconclusive: 35.5 µM [inhibitor, single point].
In the case of `COc1cccc(-n2cc(C(=O)OCc3ccc(F)c(F)c3)c3ccccc3c2=O)c1`, the Potency is reported as “inactive”.
For `Cc1ccc(NC(=O)/C(=C\c2ccccc2)NC(=O)/C=C/c2ccccc2)cc1`, the Potency was inconclusive: 39.8 µM [inhibitor, partial curve].
In the case of `O=C(CNc1cccc([N+](=O)[O-])c1)N/N=C/c1ccc([N+](=O)[O-])o1`, the Potency is reported as inconclusive: 3.16 µM [inhibitor, partial curve].
`C=CCNC1=C(Cl)C(=O)N(c2cccc(Cl)c2Cl)C1=O` was tested, and the Potency was inconclusive: 20 µM [inhibitor, partial curve].
In the case of `COc1cccc(-c2cc(C(=O)Nc3cc(OC)c(OC)c(OC)c3)no2)c1`, the Potency is reported as inconclusive: 12.6 µM [inhibitor, partial curve].
For `COc1ccc(-c2cn3nc(N4CCCC(C(=O)Nc5cccc(Cl)c5C)C4)sc3n2)cc1` (stereo not drawn), the Potency was inconclusive: 10 µM [inhibitor, partial curve, poor fit].
In the case of `c1ccc(Cn2cc(CSc3ccccc3)nn2)cc1`, the Potency is reported as “inactive”.
In the case of `O=C1/C(=C/c2cccs2)Sc2ccccc21`, the Potency is reported as inconclusive: 1.58 µM [inhibitor, full curve].
In the case of `Cc1noc(C)c1CSc1cc(C)c2ccccc2n1`, the Potency is reported as inconclusive: 31.6 µM [inhibitor, single point].
`COc1cccc(N2C(=O)CC(NNc3nc4ccccc4s3)C2=O)c1` (stereo not drawn) was tested, and the Potency was inconclusive: 44.7 µM [inhibitor, single point].
`Cc1ccccc1NC(=O)CSc1nnc(COc2ccc(Cl)cc2)o1` was tested, and the Potency was inconclusive: 15.8 µM [inhibitor, partial curve].
In the case of `COc1ccccc1CC(=O)Nc1ccc([N+](=O)[O-])cc1O`, the Potency is reported as inconclusive: 15.8 µM [inhibitor, single point].
In the case of `CN(Cc1ccccc1)C(=O)COC(=O)c1cc(-c2ccc(Cl)s2)nc2ccccc12`, the Potency is reported as inconclusive: 0.224 µM [inhibitor, full curve, poor fit].
For `CCN(CC)c1ccc(/C=N/NC(=O)Nc2ccccc2)cc1`, the Potency was active: 14.1 µM.
In the case of `Cn1c(SCCOc2ccccc2F)nc2ccccc2c1=O`, the Potency is reported as inconclusive: 25.1 µM [inhibitor, partial curve].
For `Cc1ccc(Cl)cc1NC(=O)N1CCC(CN2CCCCCC2)CC1`, the Potency was inconclusive: 25.1 µM [inhibitor, single point].
In the case of `O=C(CCSc1ccccc1)NC(=O)COC(=O)C1CCCCC1`, the Potency is reported as inconclusive: 10 µM [inhibitor, partial curve].
In the case of `O=C(Nc1ccccc1)Nc1nc2ccccc2s1`, the Potency is reported as inconclusive: 2.24 µM [activator, full curve, poor fit].
For `COc1ccc(C(=O)N2CCN(c3c(C)cccc3C)CC2)cc1OC`, the Potency was inconclusive: 7.08 µM [inhibitor, partial curve, poor fit].
In the case of `CCOc1ccccc1-n1nnc(-c2nc(-c3ccccc3C)no2)c1C`, the Potency is reported as “inactive”.
`Cc1ccc2nc(-c3cccc(NC(=O)c4ccc(Br)o4)c3)oc2c1` was tested, and the Potency was inconclusive: 4.47 µM [inhibitor, single point].
For `COc1ccc(C(=O)Nc2nnc(S(=O)(=O)N3CCCc4ccccc43)s2)cc1`, the Potency was inconclusive: 7.08 µM [inhibitor, partial curve].
`Cc1ccc(CC2CC(=O)N(CCc3ccccc3)C2=O)cc1` (stereo not drawn) was tested, and the Potency was “inactive”.
With `C=C1C(=O)O[C@@H]2[C@H]3O[C@]3(C)CCC=C(C)CC[C@@H]12` the Potency was inconclusive: 3.16 µM [inhibitor, full curve] and inconclusive: 15.8 µM [inhibitor, partial curve].
In the case of `CN1CCC(=NNC(=O)C(=O)Nc2ccc(F)cc2)CC1`, the Potency is reported as inconclusive: 28.2 µM [inhibitor, single point].
With `Cc1ccc(C(=O)Nc2nc3n(n2)C(c2ccc(F)cc2)C=C(c2ccccc2)N3)cc1` (stereo not drawn) the Potency was inconclusive: 2.51 µM [inhibitor, partial curve].
In the case of `COc1cccc(N2CCN(Cc3nc(N)nc(N4CCCc5ccccc54)n3)CC2)c1`, the Potency is reported as inconclusive: 22.4 µM [inhibitor, partial curve].
`CCOC(=O)c1c(NC(=O)c2ccc(Br)cc2)sc2c1CCCC2` was tested, and the Potency was inconclusive: 39.8 µM [inhibitor, single point].
For `O=C(Nc1ccc(F)c(Cl)c1)C1CCN(S(=O)(=O)c2ccc3[nH]c(=O)ccc3c2)CC1`, the Potency was “inactive”.
`C=CCNC(=O)c1ccc(-c2ccc([N+](=O)[O-])cc2)o1` was tested, and the Potency was inconclusive: 17.8 µM [inhibitor, single point].
`O=C1/C(=C/c2ccc(O)cc2)SC(=S)N1CC1CCCO1` (stereo not drawn) was tested, and the Potency was active: 10 µM.
With `Cn1c(=O)c2c(nc(CN3CCC(C(N)=O)CC3)n2CCc2ccccc2)n(C)c1=O` the Potency was “inactive”.
For `CCOC(=O)c1cc2c(=O)n3cccc(C)c3nc2n(Cc2ccco2)c1=NC(=O)c1cccnc1`, the Potency was “inactive”.
